Source: paper PMC4336329 (PLoS ONE, 2015)
Among all 310,000 compounds or so, about 2,200 (0.71%) showed an effect of 50% or more. The effect is printed as a negative number. The list shows a part of the results.

These compounds were tested against human ether-à-go-go-related gene (hERG) potassium channel (human, UniProt Q12809) (assay: primary screen, population patch clamp on CHO cells stably expressing hERG).
Sequence of human ether-à-go-go-related gene (hERG) potassium channel (Q12809 whole entry, looked up): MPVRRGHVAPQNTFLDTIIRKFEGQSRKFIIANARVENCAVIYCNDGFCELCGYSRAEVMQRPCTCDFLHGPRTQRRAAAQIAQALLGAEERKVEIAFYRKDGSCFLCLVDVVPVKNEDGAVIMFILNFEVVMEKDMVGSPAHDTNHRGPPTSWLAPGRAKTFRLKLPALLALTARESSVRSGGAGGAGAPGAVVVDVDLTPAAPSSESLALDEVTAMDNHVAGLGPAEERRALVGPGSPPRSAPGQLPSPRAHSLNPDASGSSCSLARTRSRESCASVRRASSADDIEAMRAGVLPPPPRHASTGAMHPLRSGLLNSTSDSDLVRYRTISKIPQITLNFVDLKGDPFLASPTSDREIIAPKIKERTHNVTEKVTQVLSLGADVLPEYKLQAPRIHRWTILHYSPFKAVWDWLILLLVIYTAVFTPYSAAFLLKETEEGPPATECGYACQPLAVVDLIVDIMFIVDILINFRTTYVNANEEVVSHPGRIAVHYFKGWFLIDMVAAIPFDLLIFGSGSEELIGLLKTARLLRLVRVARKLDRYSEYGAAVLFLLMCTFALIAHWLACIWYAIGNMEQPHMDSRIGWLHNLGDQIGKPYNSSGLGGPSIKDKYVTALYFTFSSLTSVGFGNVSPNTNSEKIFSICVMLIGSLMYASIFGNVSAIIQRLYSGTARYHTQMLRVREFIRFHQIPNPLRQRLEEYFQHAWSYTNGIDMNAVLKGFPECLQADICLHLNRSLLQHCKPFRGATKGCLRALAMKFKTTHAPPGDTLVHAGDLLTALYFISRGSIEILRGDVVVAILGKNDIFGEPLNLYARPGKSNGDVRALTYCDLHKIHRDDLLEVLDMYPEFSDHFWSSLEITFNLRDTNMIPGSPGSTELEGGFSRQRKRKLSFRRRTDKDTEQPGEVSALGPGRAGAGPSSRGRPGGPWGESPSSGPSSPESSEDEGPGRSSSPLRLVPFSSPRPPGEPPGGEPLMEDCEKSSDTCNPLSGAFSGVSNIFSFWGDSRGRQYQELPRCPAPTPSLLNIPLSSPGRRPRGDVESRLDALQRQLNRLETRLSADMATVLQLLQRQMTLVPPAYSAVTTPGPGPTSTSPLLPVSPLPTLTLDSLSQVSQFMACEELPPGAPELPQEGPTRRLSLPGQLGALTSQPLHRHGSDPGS

SMILES	hERG current change (%, negative = inhibition) at 1uM [%]
CCOC(=O)c1ccc(NC(=O)c2nc[nH]c2C(=O)NCc2ccccc2)cc1	5.51
CCOC(=O)c1c(NC(=O)COc2ccc3ccc(=O)oc3c2)sc(C(=O)N(C)C)c1C	9.71
O=C(C[n+]1cc(-c2ccc(Cl)cc2)n2c1CCCCC2)c1ccccc1.[Br-]	-2.53
Cn1c(Sc2ccccc2Cl)c(C=O)c2ccccc21	-4.16
CCOC(=O)N1CCN(CCC(=O)Nc2cccc(Br)c2)CC1.Cl	-0.143
Nc1c(N(CCC2=CCCCC2)C(=O)c2ccc([N+](=O)[O-])o2)c(=O)[nH]c(=O)n1Cc1ccccc1	8.72
Cc1ccc(S(=O)(=O)N(C)CC(=O)Nc2ccccc2)cc1	-4.62
CN(C(=O)CSc1nnc(-c2ccccc2F)o1)c1ccccc1	10.5
CCOc1ccc(NC(=O)C2CCC(C)(C(=O)O)C2(C)C)cc1 (stereo not shown)	6.2
CCOc1ccc(-n2c(SCC(=O)Nc3ccc(OC)cc3)nc3c(c2=O)SCC3)cc1	12
CCC(C(=O)N1CCOCC1)n1c2ccccc2c2nc(=O)cc(C)n21 (stereo not shown)	13.4
CC(C)Oc1cc2oc(=O)c3c(c2cc1Cl)CCC3	16.9
COc1ccccc1OCC(=O)N1CCCCCCC1	14.5
COCCCNC(=O)C1C2C=CC3(CN(Cc4ccc(C)cc4)C(=O)C13)O2 (stereo not shown)	10.2
Cn1c(-c2cc3c(C(F)(F)F)nn(C)c3s2)n[nH]c1=S	15.1
Cc1ccccc1NC(=O)Cc1nnc(SCC(=O)NC2CCCC2)n1C	13.9
CCOc1ccc2c(c1)C(c1cccs1)=NNC(c1cccnc1)=N2	-14.1
COC(=O)c1sccc1NC(=S)N1CCC(C)CC1	11.2
Cc1cc(C)cc(N(CC(=O)NCc2ccc3c(c2)OCO3)C(=O)CCC(=O)Nc2ccccn2)c1	1.22
O=C(O)CSc1c(-c2ccccc2)c2cc(Cl)ccc2[nH]c1=O	4.15
CCc1ccc2[nH]c(=O)c(CN(CCCN3CCOCC3)C(=O)Nc3ccc(Cl)cc3)cc2c1	-1.28
Cl.O=C(CN1CCOCC1)N1CCc2ccccc2C(c2ccccc2)C1 (stereo not shown)	10.6
Cc1cccc(OC(=O)c2sc3ncn(C)c(=O)c3c2C)c1	5.42
CCOc1ccc(NC(=O)CCS(=O)(=O)c2ccc3c(c2)CCCN3C(C)=O)cc1	11.5
CCOC(=O)C1=C(C)NC(C)=C(C(=O)OCC)C1C(=O)OCC(=O)N(C)C1CCS(=O)(=O)C1 (stereo not shown)	8.28
C/C=C(/C)C(=O)OC1c2c(ccc3ccc(=O)oc23)OC(C)(C)C1OC(=O)/C(C)=C\C (stereo not shown)	12.6
Nc1nc2ccccc2n1C(=O)CCc1ccccc1	12.7
O=Cc1ccc(Oc2cccc(C(F)(F)F)c2)nc1	8.47

SMILES	hERG current change (%, negative = inhibition) at 1uM [%]
COc1cccc(N2C(=O)CC(N3CCN(C(=O)c4ccco4)CC3)C2=O)c1 (stereo not shown)	10.4
O=[N+]([O-])c1cccc(S(=O)(=O)Nc2ccc(S(=O)(=O)Nc3nccs3)cc2)c1	13.1
CCN1CCN(c2nc3c(C)cccn3c(=O)c2/C=C(\C#N)C(=O)NCCOC)CC1	10.2
CCCCCc1nnc(NC(=O)NS(=O)(=O)c2ccc(C)cc2)s1	6.01
O=C(Nc1cccc(NC(=O)c2cccs2)c1)c1ccc([N+](=O)[O-])o1	8.73
CC(NC(=O)C1CCCN1S(=O)(=O)c1cccc2nsnc12)c1ccccc1 (stereo not shown)	15.5
CC(=O)c1sc(NC(=O)CN2C(=O)CCC2=O)nc1C	8.98
COc1ccc(NC(=O)Nc2ccc(Cc3ccncc3)cc2)cc1OC	13.5
Cc1cc(C(=O)C(=O)O)c(C)n1-c1ccc(Cl)c(Cl)c1	19.9
Cc1ccc(N2C(=O)CC(=O)NC2=O)cc1	-7.78
Cc1cccc(/C=C2/S/C(=N/N=C3\CC4CCC3(C)C4(C)C)NC2=O)c1 (stereo not shown)	0.701
CC(=O)N1CCc2cc(S(=O)(=O)NCC(=O)NCc3ccc(Cl)cc3)ccc21	12.3
COc1cc(/C=C/C(=O)c2ccc3c(c2)OCCO3)cc(OC)c1OC	10.8
O=C(Cn1cnc2c(cnn2-c2ccc(Cl)cc2)c1=O)N1CCN(c2ccccc2)CC1	6.64
O=C(COc1ccccc1)Nc1nnc(C23CC4CC(CC(C4)C2)C3)s1	18.9
C=CCNC(=O)c1ccc(OC)cc1	12.6
N#CC1=C(SCc2ccccc2)NC(=O)CC1c1ccco1 (stereo not shown)	11.2
COc1ccc(CN2CCN(S(=O)(=O)c3ccc(C)cc3)CC2)cc1Br	-1.22
CCC(CC)C(=O)c1c[nH]c(C(=O)N2CCN(c3ccccc3)CC2)c1	4.2
COc1ccc(C2OC(=O)CC2C(=O)NCc2ccccc2Cl)cc1OC (stereo not shown)	5.42
Cl.O=C(CN1CCC(n2nnc3cc(F)ccc32)CC1)NCc1ccco1	-11.6
CCCCc1nc(NCCN)c(C#N)c2c1CSC(C)(C)C2	5.4
O=C1/C(=C/c2ccc(O)cc2)CCc2ccc([N+](=O)[O-])cc21	9.86
O=C(NCCc1nnc2ccc(NCC3CCCO3)nn12)c1ccccc1 (stereo not shown)	-7.27
Cn1nccc1C(=O)N1CCN(c2ccccc2Cl)CC1	3.16
COc1cc(OC)c(C2C(C(=O)N3CCOCC3)=C(C)NC3=C2C(=O)CC(C)(C)C3)cc1OC (stereo not shown)	16.6
CN1CN=C(NS(=O)(=O)c2ccc([N+](=O)[O-])cc2)NC1	-2.68
